# Assay results published in PubChem BioAssay AID463173 (ICCB-Longwood Screening Facility, Harvard Medical School, 2010).
# The whole screen tested about 52,000 compounds, of which about 1,700 (3.3%) were called active. Cut-off read from the data, not from the text of the source: active = survival mostly below about 52% (no sharp cut-off); inactive = mostly above about 56%. Some of the results follow.
# System: Wild type
# Assay: growth inhibition of S. aureus wild type versus tarO mutant, primary screen, teichoic acid synthesis inhibitors, RN4220, OD600 (AID 463173)
# Settings: S. aureus RN4220 wild type/DeltatarO growth, OD600, 18 h, active compounds read low, screened at 18.75 µg/mL (by protocol)
row,SMILES,survival
1,CC(C)Oc1ccc(CNC(=O)CCCn2c(=O)c3cccn3c3ccccc32)cc1,inactive: 54%
2,CCCS(=O)(=O)Nc1cc(-c2cn3cccc(C)c3n2)ccc1C,inactive: 86%
3,Cc1ccc(C(=O)CSc2nc(C)cc(C)c2C#N)cc1,inactive: 102%
4,COc1ccc(-c2cc(C(F)(F)F)c(C#N)c(SCC(=O)Nc3ccc(F)cc3)n2)cc1,inactive: 77%
5,COc1ccc(-c2cn3nc(N4CCC(C(=O)NCc5ccccc5F)CC4)sc3n2)cc1,inactive: 77%
6,Cc1ccc(NCc2cccn2-c2nnc(N3CCC(C(=O)NC(C)C)CC3)s2)cc1,inactive: 121%
7,Cc1ccc(S(=O)(=O)N2CCCc3cc(NS(=O)(=O)c4ccc(F)c(C)c4)ccc32)cc1,inactive: 81%
8,CCOC(=O)c1c(NC(=O)CS(=O)(=O)c2ccc(C)cc2)sc2c1CCCCC2,inactive: 87%
9,COc1ccc(CNc2ncnc3onc(C)c23)cc1,inactive: 91%
10,COc1ccc(NC(=O)Cn2c(=O)oc3cc(S(=O)(=O)NC4CCCC4)ccc32)cc1OC,inactive: 78%
11,CCCNC(=O)c1ccc2c(c1)ncn2-c1ccc(C)cc1C,inactive: 59%
12,CN(C)CCNC(=O)c1ccc(-n2c(-c3ccccc3)cc3c2CCCC3)cc1,inactive: 29%
13,CCc1ccc(CNC(=O)c2ccc3c(c2)N=C(C)c2cc(C)ccc2S3)cc1,inactive: 93%
14,Cn1c(=O)c2c(SCC(=O)N3CCc4ccccc43)nc(-c3ccccc3Cl)nc2n(C)c1=O,inactive: 85%
15,Cc1nc(-c2ccccc2)sc1-c1ccc(SCC(=O)NCc2ccc(F)cc2)nn1,inactive: 98%
16,Cc1ccc(-c2nc3cccnc3s2)cc1NC(=O)C(C)C,inactive: 116%
17,Cc1ccc(-c2ccc(=O)n(Cc3cc(C)ccc3C)n2)cc1,inactive: 92%
18,CC1=Nc2cc(C(=O)NCCc3ccc(Cl)cc3)ccc2Sc2ccc(C)cc21,inactive: 80%
19,CCC(CC)C(=O)NC1CC(=O)N(c2ccc3c(c2)OCCO3)C1 (centres undefined),inactive: 135%
20,Cc1ccc(C(C)C)c(OCC(=O)Nc2cccc(NC(=O)c3ccco3)c2)c1,active: 12%
21,CCOc1ccc(-n2c(SCC(=O)N3CCCC3)nc3c([nH]c4ccccc43)c2=O)cc1,inactive: 73%
22,COC(=O)C(Cc1c[nH]c2ccccc12)NC(=O)COc1ccc(Cl)cc1Cl (centres undefined),inactive: 54%

row,SMILES,survival
1,O=C(CSc1nc2ccccc2c(=O)n1-c1ccccc1)N1CCOCC1,inactive: 104%
2,CCOc1ccc(-n2c(CCC(=O)O)ccc2-c2ccc(Br)cc2)cc1,inactive: 77%
3,CCN(c1cc(C)cc(C)c1)S(=O)(=O)c1nnc(NC(=O)c2cccs2)s1,inactive: 23%
4,CCc1ccc(CNC(=O)CCSCc2ccccc2F)cc1,inactive: 70%
5,Cc1cccc(NS(=O)(=O)c2ccc3[nH]c(=O)ccc3c2)c1C,inactive: 101%
6,COc1cc(NC(=O)Cn2c(=O)oc3cc(S(=O)(=O)N4CCCCCC4)ccc32)cc(OC)c1,inactive: 80%
7,Cc1oc2ccc(O)c(CN(C)Cc3ccccc3)c2c1C(=O)Nc1cccc(C(F)(F)F)c1,active: 10%
8,COc1ccccc1OCCn1c(-c2ccc(Cl)cc2)nc2ccccc2c1=O,inactive: 77%
9,COc1ccc(C(=O)c2cn(CC(=O)Nc3ccc4c(c3)OCCO4)c3ccc(OC)cc3c2=O)cc1,inactive: 92%
10,CCN(C(=O)Cc1nc(-c2ccc(OC)cc2)no1)c1cccc(Cl)c1,inactive: 84%
11,O=C(Cn1c(=O)nc(-c2ccccc2)c2ccccc21)Nc1ccc(Cl)c(C(F)(F)F)c1,inactive: 73%
12,O=C(CSc1nc(-c2ccccc2)no1)N1CCN(c2ccccc2F)CC1,inactive: 69%
13,COc1cccc(C2=CC(c3ccc(OC)c(OC)c3OC)n3ncnc3N2)c1 (centres undefined),inactive: 119%
14,COc1cc(C2c3c(oc4ccccc4c3=O)C(=O)N2c2nncs2)cc(OC)c1OC (centres undefined),inactive: 76%
15,Cc1cccc(-c2cc(NC(=O)C(C)(C)C)n(-c3ccccc3)n2)c1,inactive: 78%
16,COc1ccc(C(CC(=O)Nc2cccc(C)c2C)N2Cc3ccccc3C2=O)cc1 (centres undefined),inactive: 68%
17,CCC1CN(C(=O)N2CCC(C(=O)Nc3cc(C)ccc3C)CC2)c2ccccc2O1 (centres undefined),inactive: 108%
18,CCOc1ccc(-c2cn3c(n2)sc2cc(C(=O)NCCCc4ccccc4)ccc23)cc1,inactive: 96%
19,Cc1nc2nc(SCc3ccc(F)cc3Cl)nn2c(C)c1Cc1ccccc1,inactive: 71%
20,Cc1cccc2cc(CNCc3ccco3)c(=O)[nH]c12,inactive: 105%
21,O=C(COc1ccc(F)cc1)Nc1ccccc1C(=O)OCc1cc(=O)n2nc(C3CC3)sc2n1,inactive: 99%
22,CC(NC(=O)c1ccc(Nc2nc3ccccc3n3nnnc23)cc1)c1ccccc1 (centres undefined),inactive: 83%
